Results taken from the supplement of paper PMC12217912.
Some of the results follow. The full chains were built here from the parent and the listed change. Values near 0.05 are background.

B1: TEV protease; numbered along this chain (parent)
chain: MGESLFKGPRDYNPISSSICHLTNESDGHTTSLYGIGFGPFIITNKHLFRRNNGTLVVQSLHGVFKVKDTTTLQQHLVDGRDMIIIRMPKDFPPFPQKLKFREPQREERICLVTTNFQTKSMSSMVSDTSCTFPSGDGIFWKHWIQTKDGQCGSPLVSTRDGFIVGIHSASNFTNTNNYFTSVPKNFMELLTNQEAQQWVSGWRLNADSVLWGGHKVFMVKPEEPFQPVKEATQL

Variants of: B1
Assay: raw area under fraction-flipped curve 0-4 h after induction (AUC4h, not background-subtracted), DNA-recorder readout of cleavage of the substrate (dimensionless); higher = more cleavage of the substrate by the protease variant
Details: temperature: 34 °C; time window: 0-4 h after rhamnose induction
Description: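 In vivo DNA recorder in E. coli TOP10(DE3) ΔrhaA at 34 °C. Each TEVp single-site mutant (parent TEVp 0) is paired with a single-site variant of the 7-mer TEVs (canonical ENLYFQ|S). The substrate sits between flexible linkers in a Bxb1-sfGFP-TEVs-SsrA fusion, so cleavage stabilises Bxb1 and speeds flipping of a recombination array, read by NGS. The value is the raw area under the fraction-flipped curve over 0-4 h after rhamnose induction (AUC4h), with ≥20 reads per time point. It is not background-subtracted; inactive controls average about 0.047.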
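Note: Bxb1 expression induced with 0.2% (w/v) L-rhamnose at OD600 near 0.5, cultures sampled hourly, flipped fraction per protease–substrate barcode pair counted by paired-end Illumina sequencing.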

MGESLFKGPRDYNPISSSICHLTNESDGHTTSLYGIGFGPFIITNKHLFRRNNGTLVVQSLHGVFKVKDTTTLQQHLVDGRDMIIIRMPKDFPPFPQKCKFREPQREERICLVTTNFQTKSMSSMVSDTSCTFPSGDGIFWKHWIQTKDGQCGSPLVSTRDGFIVGIHSASNFTNTNNYFTSVPKNFMELLTNQEAQQWVSGWRLNADSVLWGGHKVFMVKPEEPFQPVKEATQL [L99C]
area with substrate ENLYFQA: 0.104 | area with substrate ENLYFQD: 0.0767 | area with substrate ENLYFQE: 0.0467 | area with substrate ENLYFQG: 0.0937 | area with substrate ENLYFQH: 0.0476 | area with substrate ENLYFQI: 0.0467 | area with substrate ENLYFQK: 0.0637 | area with substrate ENLYFQL: 0.0601 | area with substrate ENLYFQN: 0.0845 | area with substrate ENLYFQP: 0.053 | area with substrate ENLYFQR: 0.0615 | area with substrate ENLYFQS: 0.0956 | area with substrate ENLYFQT: 0.0642 | area with substrate ENLYFQV: 0.0493

MGESLFKGPRDYNPISSSICHLTNESDGHTTSLYGIGFGPFIITNKHLFRRNNGTLVVQSLHGVFKVKDTTTLQQHLVDGRDMIIIRMPKDFPPFPQKSKFREPQREERICLVTTNFQTKSMSSMVSDTSCTFPSGDGIFWKHWIQTKDGQCGSPLVSTRDGFIVGIHSASNFTNTNNYFTSVPKNFMELLTNQEAQQWVSGWRLNADSVLWGGHKVFMVKPEEPFQPVKEATQL [L99S]
area with substrate ENLYFQA: 0.0799 | area with substrate ENLYFQC: 0.0945 | area with substrate ENLYFQD: 0.0577 | area with substrate ENLYFQG: 0.114 | area with substrate ENLYFQH: 0.0757 | area with substrate ENLYFQK: 0.0769 | area with substrate ENLYFQL: 0.0552 | area with substrate ENLYFQM: 0.066 | area with substrate ENLYFQP: 0.0845 | area with substrate ENLYFQQ: 0.0454 | area with substrate ENLYFQR: 0.0631 | area with substrate ENLYFQS: 0.0849 | area with substrate ENLYFQT: 0.0562 | area with substrate ENLYFQV: 0.0651 | area with substrate ENLYFQW: 0.0693

MGESLFKGPRDYNPISSSICHLTNESDGHTTSLYGIGFGPFIITNKHLFRRNNGTLVVQSLHGVFKVKDTTTLQQHLVDGRDMIIIRMPKDFPPFPQKLNFREPQREERICLVTTNFQTKSMSSMVSDTSCTFPSGDGIFWKHWIQTKDGQCGSPLVSTRDGFIVGIHSASNFTNTNNYFTSVPKNFMELLTNQEAQQWVSGWRLNADSVLWGGHKVFMVKPEEPFQPVKEATQL [K100N]
area with substrate ENLYFQA: 0.106 | area with substrate ENLYFQC: 0.12 | area with substrate ENLYFQD: 0.0768 | area with substrate ENLYFQF: 0.0636 | area with substrate ENLYFQG: 0.199 | area with substrate ENLYFQH: 0.0869 | area with substrate ENLYFQI: 0.0498 | area with substrate ENLYFQK: 0.0873 | area with substrate ENLYFQL: 0.0556 | area with substrate ENLYFQM: 0.105 | area with substrate ENLYFQN: 0.0841 | area with substrate ENLYFQR: 0.0516 | area with substrate ENLYFQS: 0.102 | area with substrate ENLYFQV: 0.059

MGESLFKGPRDYNPISSSICHLTNESDGHTTSLYGIGFGPFIITNKHLFRRNNGTLVVQSLHGVFKVKDTTTLQQHLVDGRDMIIIRMPKDFPPFPQKLKQREPQREERICLVTTNFQTKSMSSMVSDTSCTFPSGDGIFWKHWIQTKDGQCGSPLVSTRDGFIVGIHSASNFTNTNNYFTSVPKNFMELLTNQEAQQWVSGWRLNADSVLWGGHKVFMVKPEEPFQPVKEATQL [F101Q]
area with substrate ENLYFQA: 0.0315 | area with substrate ENLYFQC: 0.0526 | area with substrate ENLYFQD: 0.0415 | area with substrate ENLYFQF: 0.0403 | area with substrate ENLYFQG: 0.0501 | area with substrate ENLYFQH: 0.0454 | area with substrate ENLYFQK: 0.0473 | area with substrate ENLYFQL: 0.041 | area with substrate ENLYFQM: 0.048 | area with substrate ENLYFQN: 0.0411 | area with substrate ENLYFQR: 0.0598 | area with substrate ENLYFQS: 0.0505 | area with substrate ENLYFQV: 0.0596 | area with substrate ENLYFQW: 0.0501 | area with substrate ENLYFQY: 0.0443

MGESLFKGPRDYNPISSSICHLTNESDGHTTSLYGIGFGPFIITNKHLFRRNNGTLVVQSLHGVFKVKDTTTLQQHLVDGRDMIIIRMPKDFPPFPQKLKFREPQIEERICLVTTNFQTKSMSSMVSDTSCTFPSGDGIFWKHWIQTKDGQCGSPLVSTRDGFIVGIHSASNFTNTNNYFTSVPKNFMELLTNQEAQQWVSGWRLNADSVLWGGHKVFMVKPEEPFQPVKEATQL [R106I]
area with substrate ENLYFQA: 0.113 | area with substrate ENLYFQI: 0.0619 | area with substrate ENLYFQL: 0.057 | area with substrate ENLYFQR: 0.0508 | area with substrate ENLYFQS: 0.101 | area with substrate ENLYFQT: 0.0556 | area with substrate ENLYFQW: 0.0698
